# Measurements reported in PubChem BioAssay (NCATS).
# The shares of active, inactive and inconclusive entries below differ from those in the screen. For part of these data: No potency is given beside an inconclusive call; the fits are too rough. Active and inactive are the calls of the source. Calls come from the whole dose curve; as a rule, active = well fitted curve in the direction sought with a large enough effect; inconclusive = small, poorly fitted or top-dose-only effect, or another doubt; inactive = no such curve, though single readings can be large; an effect the other way counts as inactive or inconclusive.
# Tests used:
# [1] = qHTS to identify inhibitors of the type 1 interferon - major histocompatibility complex class I in skeletal muscle: primary screen against the NCATS LOPAC collection (AID 1347405); settings: iHSKM muscle cells, IFN-b-induced MHC-I HiBiT luminescence, 24 h; activity change, negative = inhibition: at 45.9 µM (top of the series);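 note: human myoblasts with HiBiT tag on endogenous HLA-B stimulated by IFN-beta; lytic HiBiT luminescence reporting HLA-B protein level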
# Procedure, shortened: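 IFN-beta-stimulated (4 ng/ml) HLA-B HiBiT knock-in myoblasts, compound-treated 24 hrs up to 46 uM final; signal via LgBiT complementation and furimazine luminescence.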
# [2] = qHTS to identify inhibitors of the type 1 interferon - major histocompatibility complex class I in skeletal muscle: primary screen against the NCATS Pharmaceutical Collection (AID 1347407); settings: human skeletal muscle cells, IFN-b-induced MHC-I HiBiT luminescence, 24 h; series mostly up to 45.9 µM;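 note: luminescence of HiBiT knocked into endogenous HLA-B as interferon-induced MHC class I level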
# Procedure, shortened: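 Cells were seeded with 4 ng/ml IFN-beta, incubated 1 h, then dosed with compounds over eight 1:5 steps up to 46 uM final. After 24 h at 37 C, HiBiT lytic reagent was added and luminescence read after 10 min lysis in the dark.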
# [3] = molecular target: Protein phosphatase 1D (Homo sapiens) (UniProt O15297); test: Rhodamine-PBP qHTS Assay for Modulators of WT P53-Induced Phosphatase 1 (WIP1) (AID 1347425); settings: recombinant WIP1, Rhodamine-PBP phosphate fluorescence, real-time; series mostly up to 57.5 µM
# Procedure, shortened: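 5 nM WIP1 + 10 uM Rh-PBP, 50 mM Tris pH 7.5, 30 mM MgCl2, 1 mM TCEP, 0.1 mM EGTA, BSA; cpds pinned, 1 hr RT; + 10 uM phosphopeptide; fluorescence 1-min reads x 11 min; delta = f1 - f0.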
# [4] = Primary qHTS for inhibitors of La Crosse Virus (LACV) - induced cell death in SH-SY5Y cells (AID 1508616); settings: SH-SY5Y LACV cytopathicity rescue, ATP luminescence, 6 d; series mostly up to 4.29 µM;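 for activity change: top concentration of the series differs between compounds; higher means more rescue of cells from virus-induced death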
# Procedure, shortened: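 Screening measures cell viability in LACV-infected SH-SY5Y cultures. Compound was added before virus (0.01 MOI), and ATP was detected by luminescence 6 days later.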
# [5] = molecular target: Calcium and integrin-binding protein 1 (Homo sapiens) (UniProt Q99828); test: Validation qHTS for Identification of Calcium Integrin Binding protein 1 (CIB1) Competitor (AID 1508618); settings: CIB1-GST / FITC-alphaIIb peptide fluorescence polarization; series mostly up to 114 µM
# Procedure, shortened: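 Displacement of FITC-alphaIIb peptide (100 nM) from CIB1-GST (1 uM) is monitored by polarization in quantitative HTS format; buffer carries 5 mM CaCl2 and 125 mM NaCl at pH 7.4, incubations are at room temperature.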
# [6] = Tertiary RLuc qRT-PCR qHTS assay for Zika virus inhibitors (AID 1347169); settings: infected Vero cells, reporter luminescence, 48-72 h; series mostly up to 45.9 µM; note: nearly all actives have a fitted effect of over 55% in size
# Procedure, shortened: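 Orthogonal cell-based infection assay using recombinant ZIKV-RLuc (Cambodian) in Vero cells; compound added prior to virus at MOI 1-2. Incubation lasts 48-72 hrs at 37 degrees C before live-cell Renilla substrate is added and luminescence measured.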
# [7] = qHTS to identify inhibitors of the type 1 interferon - major histocompatibility complex class I in skeletal muscle: primary screen against the NCATS Mechanism Interrogation Plate v5.0 (MIPE) Libary (AID 1347411); settings: iHSKM cells + IFN-b, HiBiT-tagged MHC-I luminescence, 24 h; activity change, negative = inhibition: at 45.8 µM (top of the series); note: nearly all actives have a fitted effect of over 65% in size
# Procedure, shortened: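 IFN-beta-driven (4 ng/ml) HLA-B-HiBit expression in CRISPR-tagged C25cl48 myoblasts; compounds 11-pt, 1:3, max 46 uM, 24 hr exposure; lytic NanoLuc complementation luminescence.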
# [8] = molecular target: Single-stranded DNA cytosine deaminase (Homo sapiens) (UniProt Q9GZX7); test: Validation qHTS assay for inhibitors of Activation Induced Cytidine Deaminase (AID): AID signal (AID 1347429); settings: Recombinant AID, FRET ssDNA deamination with UDG, fluorescence
# Procedure, shortened: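 Compounds (up to 114 uM final) are tested against AID plus UDG using DJC20/DJC23 FRET substrate. Reactions incubate 4 hr at room temperature, receive NaOH for 30 min, and are read at Ex 540/Em 590 nm.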
# Potency is the fitted concentration of half-maximal effect; tags give direction and shape of the fitted curve.
# Chain of UniProt Q99828 (Q99828 whole entry, looked up): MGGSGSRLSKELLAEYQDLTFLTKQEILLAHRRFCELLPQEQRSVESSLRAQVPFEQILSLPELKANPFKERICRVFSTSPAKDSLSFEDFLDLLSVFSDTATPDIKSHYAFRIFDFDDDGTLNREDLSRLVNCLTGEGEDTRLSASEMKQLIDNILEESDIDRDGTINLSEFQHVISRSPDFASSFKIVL
# Chain of UniProt O15297 (O15297 whole entry, looked up): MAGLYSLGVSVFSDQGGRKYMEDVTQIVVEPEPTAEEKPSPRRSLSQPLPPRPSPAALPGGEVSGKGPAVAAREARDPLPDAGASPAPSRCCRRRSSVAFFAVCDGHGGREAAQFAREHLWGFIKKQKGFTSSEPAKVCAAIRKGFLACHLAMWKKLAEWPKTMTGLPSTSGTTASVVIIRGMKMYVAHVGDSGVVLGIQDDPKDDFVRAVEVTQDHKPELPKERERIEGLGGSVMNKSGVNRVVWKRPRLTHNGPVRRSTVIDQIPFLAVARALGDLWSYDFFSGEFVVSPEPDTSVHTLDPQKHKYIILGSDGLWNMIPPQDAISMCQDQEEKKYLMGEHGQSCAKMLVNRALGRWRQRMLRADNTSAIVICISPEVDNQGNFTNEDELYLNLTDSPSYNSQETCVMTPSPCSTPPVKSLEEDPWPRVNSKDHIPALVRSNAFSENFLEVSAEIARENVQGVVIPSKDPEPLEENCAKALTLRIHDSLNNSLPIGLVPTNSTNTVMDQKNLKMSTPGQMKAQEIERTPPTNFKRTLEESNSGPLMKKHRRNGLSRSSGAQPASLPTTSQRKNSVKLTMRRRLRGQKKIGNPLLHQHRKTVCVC
# Chain of UniProt Q9GZX7 (Q9GZX7 whole entry, looked up): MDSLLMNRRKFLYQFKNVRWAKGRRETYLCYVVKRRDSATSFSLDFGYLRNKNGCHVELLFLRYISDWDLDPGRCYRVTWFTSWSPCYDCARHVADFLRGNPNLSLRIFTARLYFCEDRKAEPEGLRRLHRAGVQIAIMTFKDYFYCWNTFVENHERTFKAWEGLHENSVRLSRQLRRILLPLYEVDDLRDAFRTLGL
compound,measurement,setting,value
CCOC(=O)C1=C(C)NC(C)=C(C(=O)OC)C1c1cccc([N+](=O)[O-])c1 (stereo not given),Potency,[1],active: 12.6 µM
same,Potency,[2],"inconclusive [inhibitor, partial curve]"
same,Potency,[3],"inconclusive [inhibitor, partial curve, poor fit]"
same,Potency,[4],inactive
same,Potency,[5],"inconclusive [inhibitor, partial curve, poor fit]"
C[C@H]1O[C@@H](O[C@H]2CC[C@@]3(C)[C@H](CC[C@@H]4[C@@H]3C[C@@H](O)[C@]3(C)[C@@H](C5=CC(=O)OC5)CC[C@]43O)C2)C[C@H](O)[C@@H]1O[C@H]1C[C@H](O)[C@H](O[C@H]2C[C@H](O)[C@H](O[C@@H]3O[C@H](CO)[C@@H](O)[C@H](O)[C@H]3O)[C@@H](C)O2)[C@@H](C)O1,Potency,[6],active: 0.415 µM
same,Potency,[2],active: 0.528 µM
same,Potency,[4],"inconclusive [inhibitor, single point]"
O=C1NCN(c2ccccc2)C12CCN(CCCC(c1ccc(F)cc1)c1ccc(F)cc1)CC2,Potency,[1],"inconclusive [inhibitor, single point]"
same,Potency,[2],active: 18.7 µM
CC(=O)[C@]1(O)Cc2c(O)c3c(c(O)c2[C@@H](O[C@H]2C[C@H](N)[C@H](O)[C@H](C)O2)C1)C(=O)c1ccccc1C3=O,Potency,[1],active: 1 µM
same,Potency,[2],active: 5.28 µM
same,Potency,[7],active: 2.08 µM
same,Potency,[8],active: 2 µM
O=C(CCCN1CCN(c2ccc(F)cc2)CC1)NC1c2ccccc2CSc2ccccc21 (stereo not given),Potency,[2],"inconclusive [inhibitor, single point]"
